These results are taken from the supplement of paper PMC4604168 (melanoma cell lines).

Some of the results follow. Single values are uncertain, as repeats are few or missing.
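Further: cell number obtained by counting DAPI-stained nuclei in high-throughput microscope images with image analysis software, screen run in 1,536-well plates.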

This test concerns SkMel30. In words: cell count relative to DMSO control; melanoma cells; higher = more viable cells. Particulars: library dose: low library concentration; 72 h.
On to `O=C1NC(=O)/C(=C/c2ccc(-c3ccc(F)cc3O)o2)S1` + O=C(Oc1ccc([N+](=O)[O-])cc1)N1CCC(C(O)(c2ccc3c(c2)OCO3)c2ccc3c(c2)OCO3)CC1 [JZL184] (first compound 1 µM, partner dose 1 µM), for which the cell count came to 83.4%.

For the molecule `O=C(O)c1ccc2c(c1)nc(Nc1cccc(Cl)c1)c1ccncc12` + C[As](C)SC[C@H](NC(=O)CC[C@H](N)C(=O)O)C(=O)NCC(=O)O [Darinaparsin] (first compound 0.4 µM, partner dose 0.4 µM), the cell count stood at 79.7%.

In the case of `CN1CCN(c2ccc3nc(-c4c(N)c5c(F)cccc5[nH]c4=O)[nH]c3c2)CC1` [Dovitinib] + C/C(O)=C(\C#N)C(=O)Nc1cc(Br)ccc1Br [LFM-A13] (first compound 0.1 µM, partner dose 2 µM), the cell count turned out to be 97.6%.

Molecule `O=C(O)c1ccc2c(c1)nc(Nc1cccc(Cl)c1)c1ccncc12` + Cc1cc(SCc2sc(-c3ccc(C(F)(F)F)c(F)c3)nc2C)ccc1OCC(=O)O [GW0742] (first compound 0.4 µM, partner dose 2 µM) registered a cell count of 104%.

In turn, `CN1CCN(c2ccc3nc(-c4c(N)c5c(F)cccc5[nH]c4=O)[nH]c3c2)CC1` [Dovitinib] + C[As](C)SC[C@H](NC(=O)CC[C@H](N)C(=O)O)C(=O)NCC(=O)O [Darinaparsin] (first compound 0.1 µM, partner dose 0.4 µM) showed a cell count of 78.1%.

`Cc1cc(Nc2cc(N3CCN(C)CC3)nc(Sc3ccc(NC(=O)C4CC4)cc3)n2)n[nH]1` [Tozasertib] + N.N.[Cl][Pt][Cl] [cisplatin] (first compound 0.006 µM, partner dose 1.6 µM) yielded a cell count of 99.7%.

`CN1CCN(c2ccc3nc(-c4c(N)c5c(F)cccc5[nH]c4=O)[nH]c3c2)CC1` [Dovitinib] + O=C(Oc1ccc([N+](=O)[O-])cc1)N1CCC(C(O)(c2ccc3c(c2)OCO3)c2ccc3c(c2)OCO3)CC1 [JZL184] (first compound 0.1 µM, partner dose 1 µM) registered a cell count of 66.6%.

For the molecule `Clc1ccc(Nc2nnc(Cc3ccncc3)c3ccccc23)cc1` [vatalanib] + C/C(O)=C(\C#N)C(=O)Nc1cc(Br)ccc1Br [LFM-A13] (first compound 2 µM, partner dose 2 µM), the cell count stood at 116%.

For `CC(C)C[C@H](NC(=O)[C@H](Cc1ccccc1)NC(=O)c1cnccn1)B(O)O` [Bortezomib] + C[As](C)SC[C@H](NC(=O)CC[C@H](N)C(=O)O)C(=O)NCC(=O)O [Darinaparsin] (first compound 0.001 µM, partner dose 0.4 µM), the cell count turned out to be 72.2%.

Regarding `Cc1cc([N+](=O)[O-])ccc1NS(=O)(=O)c1cc(Cl)ccc1Cl` + O=C(Oc1ccc([N+](=O)[O-])cc1)N1CCC(C(O)(c2ccc3c(c2)OCO3)c2ccc3c(c2)OCO3)CC1 [JZL184] (first compound 1 µM, partner dose 1 µM), the cell count was 95.3%.

`Cc1cc(Nc2cc(N3CCN(C)CC3)nc(Sc3ccc(NC(=O)C4CC4)cc3)n2)n[nH]1` [Tozasertib] + Cn1cc(C2=C(c3cn(C4CCN(Cc5ccccn5)CC4)c4ccccc34)C(=O)NC2=O)c2ccccc21 [Enzastaurin] (first compound 0.006 µM, partner dose 0.8 µM) displayed a cell count of 109%.

Regarding `Cc1cc(Nc2cc(N3CCN(C)CC3)nc(Sc3ccc(NC(=O)C4CC4)cc3)n2)n[nH]1` [Tozasertib] + O=C(Oc1ccc([N+](=O)[O-])cc1)N1CCC(C(O)(c2ccc3c(c2)OCO3)c2ccc3c(c2)OCO3)CC1 [JZL184] (first compound 0.006 µM, partner dose 1 µM), the cell count came out at 86.8%.

As to `Oc1cc(-c2nc(-c3ccccc3)[nH]c2-c2ccncc2)ccc1Cl` + C/C(O)=C(\C#N)C(=O)Nc1cc(Br)ccc1Br [LFM-A13] (first compound 0.2 µM, partner dose 2 µM), the cell count is 113%.

In the case of `O=C(O)C(=O)Nc1sc2c(c1C(=O)O)CCNC2` + O=C(Oc1ccc([N+](=O)[O-])cc1)N1CCC(C(O)(c2ccc3c(c2)OCO3)c2ccc3c(c2)OCO3)CC1 [JZL184] (first compound 1.66667 µM, partner dose 1 µM), the cell count was determined as 98.1%.

As to `C#Cc1cccc(Nc2ncnc3cc(OCCOC)c(OCCOC)cc23)c1` [erlotinib] + C[As](C)SC[C@H](NC(=O)CC[C@H](N)C(=O)O)C(=O)NCC(=O)O [Darinaparsin] (first compound 0.8 µM, partner dose 0.4 µM), the cell count came out at 82.9%.
